Measured values from ChEMBL document CHEMBL1201862, “PubChem BioAssay data set” (2004).

These compounds were tested on NCI-H322M (assay: NCI anticancer screen, dose series, 48 h).
For COc1cc2c(cc1O)CC1c3c(cc(O)c(OC)c3-2)CCN1C (stereo not given), the GI50 was inactive: > 100 µM.
In the case of COc1cc(OC)c2c(C)cc(=O)oc2c1, the GI50 is reported as inactive: 44.9 µM.
O=C1Nc2ccccc2/C1=N/NS(=O)(=O)c1ccc(C(=O)O)cc1 was tested, and the GI50 was inactive: > 100 µM.
O=C(O)CN1CCNCCN(CC(=O)O)CCNCC1 was tested, and the GI50 was inactive: > 89.7 µM.
With CC(Cc1ccc(O)cc1)NCC(O)c1ccc(O)c(O)c1 (stereo not given) the GI50 was inactive: > 100 µM.
For CC1=C(C(=O)NCc2ccccc2)C(c2ccc(Cl)c(Cl)c2)C(C(=O)NCc2ccccc2)=C(C)N1, the GI50 was inactive: > 100 µM.
CC(=O)OCC1OC(n2c3c(c(-c4ccc(Cl)cc4)c(C#N)c2=S)CCCC3)C(OC(C)=O)C(OC(C)=O)C1OC(C)=O (stereo not given) was tested, and the GI50 was inactive: 78.2 µM.
With CCOC(=O)[C@H](O)[C@@H](O)C(=O)NCc1ccc(C(=O)c2ccccc2)cc1 the GI50 was inactive: > 100 µM.
CC(C)(C)[Si](C)(C)OCC1CCC(n2cnc3c(NC(=O)c4ccccc4)ncnc32)O1 (stereo not given) was tested, and the GI50 was inactive: 20.1 µM.
In the case of CCCCCCCCCCCCCCCC(=O)OC1C(O)C(CO)OC(OC)C1NC(=O)N(CCCl)N=O (stereo not given), the GI50 is reported as inactive: 15.6 µM.
For COc1cc(C2C(C#N)=C(N)OC3=C2CCS(=O)(=O)c2ccc(C)cc23)cc(OC)c1OC (stereo not given), the GI50 was inactive: > 100 µM.
For Fc1cc(-c2cc(-c3ccc4c(c3)OCO4)n[nH]2)c(Cl)cc1Cl, the GI50 was inactive: 2.23 µM.
With NC1=NN(c2ccccc2)C(=O)C1C(=O)CCC(=O)Nc1cccc(C(F)(F)F)c1 (stereo not given) the GI50 was inactive: > 100 µM.
In the case of COc1cc(/C=N\c2ccc(C(C)C)cc2)cc(OC)c1OC, the GI50 is reported as inactive: > 100 µM.
For COc1ccc(OC)c2cc(Cc3ccc(N(C)C)cc3)c(=O)c(Cc3ccc(N(C)C)cc3)cc12, the GI50 was inactive: > 100 µM.
In the case of CC1CCC(C(=O)O)(C(Br)C(=O)O)CC1 (stereo not given), the GI50 is reported as inactive: > 100 µM.
In the case of CCCCc1cc2c(C)cc(=O)oc2c(O)c1O, the GI50 is reported as inactive: 45.7 µM.
In the case of C/C(=N\NS(=O)(=O)c1ccccc1)c1ccc[n+]([O-])n1, the GI50 is reported as inactive: > 100 µM.
CC(=O)OCC(OC(C)=O)C(OC(C)=O)C(OC(C)=O)C(C=NN(C(C)=O)S(=O)(=O)c1ccc(/C=C2\NC(=O)N(C)C2=O)cc1)OC(C)=O (stereo not given) was tested, and the GI50 was inactive: 35.8 µM.
With CCOC(=O)NC(Nc1ncccn1)(C(=O)OCC)C(F)(F)F (stereo not given) the GI50 was inactive: > 100 µM.
In the case of ON1CCc2c([nH]c3ccccc23)C1c1ccc(Cl)cc1 (stereo not given), the GI50 is reported as inactive: 44.2 µM.
With O=C1C(c2ccccc2)=C(c2ccccc2)C(c2ccc(-c3ccc(C4=C(c5ccccc5)C(=O)C(c5ccccc5)=C4c4ccccc4)cc3)cc2)=C1c1ccccc1 the GI50 was inactive: > 100 µM.
With CC(C)Oc1c(C2(c3ccccc3)SCCCS2)c(=O)c1=O the GI50 was inactive: > 100 µM.
CCO/C=N\c1c(C#N)c(-c2ccc(Cl)cc2)cn1-c1ccc(C)cc1 was tested, and the GI50 was inactive: > 100 µM.
N#CCc1n[nH]c2nc(SCc3ccccc3)nc(N3CCCCC3)c12 was tested, and the GI50 was inactive: 21.6 µM.
For CC1(CO)COS(=O)OC1 (stereo not given), the GI50 was inactive: > 100 µM.
In the case of CCCCCCCSc1nc2c(C(=O)OCC)ncn2c2ccccc12, the GI50 is reported as inactive: > 100 µM.
For COC(=O)C(CCC1C=CN(S(=O)(=O)c2ccc(C)cc2)C1)/N=C/c1ccccc1 (stereo not given), the GI50 was inactive: 90.8 µM.
C/C(NC(=O)c1ccccc1)=C(/C(=O)c1ccccc1)[C@@H]1OC(C)(C)O[C@@H]1[C@H]1COC(C)(C)O1 was tested, and the GI50 was inactive: 31.4 µM.
For CCOC(=O)[C@H]1Nc2ccc([N+](=O)[O-])cc2C2c3ccccc3CC21 (stereo not given in full), the GI50 was inactive: 29.6 µM.
With CCOC(=O)C1=C(Nc2ccc(Br)cc2)OC/C1=N\NC(=O)c1ccccc1O the GI50 was inactive: 24.9 µM.
With Cc1cn(C2CC(O)C(Cn3cc(Cn4nc(Br)c(=O)[nH]c4=O)nn3)O2)c(=O)[nH]c1=O (stereo not given) the GI50 was inactive: > 100 µM.
With O=C1NC(=O)C(c2c[nH]c3cc(Br)ccc23)=C1c1cn(C(c2ccccc2)(c2ccccc2)c2ccccc2)cn1 the GI50 was inactive: 18 µM.
For CCCCCCCCCCCCOc1ccc(/C=C/C2=[N+](CCCl)CCO2)cc1, the GI50 was inactive: 16.6 µM.
For CN1CCCC2C(c3ccccc3)C(C3=NCCCC3)C(c3ccccc3)CC21 (stereo not given), the GI50 was inactive: 52.5 µM.
For NC(CCCCCP(=O)(c1ccccc1)C1C=CC=CC1)C(=O)O (stereo not given), the GI50 was inactive: > 100 µM.
Cc1cc(-n2nnc(C(=O)O)c2-c2ccccc2)c2ccc(Cl)cc2n1 was tested, and the GI50 was inactive: > 100 µM.
With N#CCCCCCOCCOCCOCCOCCOCCCCCC#N the GI50 was inactive: > 100 µM.
For COc1cccc(C2c3cc4c(cc3OC(C)(N3CCCC3)C2C)OCO4)c1OC (stereo not given), the GI50 was inactive: 16.7 µM.
In the case of Cc1cc2c(C)n(Cc3ccc(Cl)cc3Cl)nc2c(C(=O)O)c1C, the GI50 is reported as inactive: > 100 µM.
In the case of O=c1[nH]nc(Cc2ccc(Cl)cc2)n1/N=C/c1ccc([N+](=O)[O-])o1, the GI50 is reported as inactive: 3.81 µM.
In the case of COc1cc2oc(-c3ccc(O)cc3)c(OC3OC(C)C(O)C(O)C3O)c(=O)c2c(O)c1OC (stereo not given), the GI50 is reported as inactive: > 100 µM.
For CC(C)(O)C1CC(=O)C(C)(C2C(O)CC3(C)C4CC=C5C(CCC(O)C5(C)C)C4(C)C(=O)CC23C)O1 (stereo not given), the GI50 was inactive: > 100 µM.
With CCOC(=O)N1CCC2(CC1)C[C@](Sc1ccccc1)(C(C)=O)[C@H](C)O2 the GI50 was inactive: > 100 µM.
With O=C(O)CNS(=O)(=O)c1ccc(NC(=O)CI)cc1 the GI50 was inactive: 30.5 µM.
For CC(=O)NC(CCCCN)C(=O)NCc1ccccc1 (stereo not given), the GI50 was inactive: > 100 µM.
With C/C(=N/O)c1ccc2c(c1)/C(=N/O)c1cc(/C(C)=N/O)ccc1-2 the GI50 was inactive: 17.3 µM.
In the case of CN(C)CC1CC/C(=C\c2ccc3c(c2)OCO3)C1=O (stereo not given), the GI50 is reported as inactive: 24.9 µM.
In the case of O=c1[nH]c(=O)c2c([nH]1)[nH]c1ccccc12, the GI50 is reported as inactive: > 100 µM.
With c1ccc2sc(SSSc3nc4ccccc4s3)nc2c1 the GI50 was inactive: > 100 µM.
In the case of Cc1ccc2oc(=O)c3c(O)c4cccc(OC5OC(C)C6O[C@@H](c7ccccc7)OC6C5OC5OC(C)C(O)C(O)C5O)c4c4oc(=O)c1c2c34 (stereo not given in full), the GI50 is reported as active: 0.136 µM.
With CCCCC/C(C=O)=C\c1ccccc1 the GI50 was inactive: > 100 µM.
With CC(=N\N)/C(C)=N/N=C(C)/C(C)=N/N=C(C)/C(C)=N/N the GI50 was inactive: > 100 µM.
In the case of COc1ccc2c(c1)CC[C@@H]1[C@@H]2CC[C@]2(C)C(=O)/C(=C/c3ccc(N(C)C)cc3)C[C@@H]12, the GI50 is reported as inactive: 61.5 µM.
Cl[Si]1(Cl)Oc2ccccc2O[Si](Cl)(Cl)Oc2ccccc2O1 was tested, and the GI50 was inactive: 16.1 µM.
With [N-]=[N+]=CC(=O)CCC(=O)N(c1ccccc1)c1ccccc1 the GI50 was inactive: 8.24 µM.
For Cn1c(N(CCO)CCO)cnc1[N+](=O)[O-], the GI50 was inactive: > 100 µM.
For CNC(=S)NNc1ncnc2c1ncn2-c1ccc(C)cc1, the GI50 was inactive: > 100 µM.
With COC(=O)Cc1cc(O)c2c(c1O)C(=O)c1ccccc1C2=O the GI50 was inactive: > 68.9 µM.
COc1cc(C2c3cc4c(cc3OC(NNS(=O)(=O)c3ccc(C)cc3)C2C)OCO4)cc(OC)c1O (stereo not given) was tested, and the GI50 was inactive: 23.7 µM.
CC1(C=O)CC(CCc2ccccc2)NC1Cc1ccc(O)cc1 (stereo not given) was tested, and the GI50 was inactive: 17.6 µM.
For O=C1/C(=C/c2ccc(O)c([N+](=O)[O-])c2)CCC/C1=C\c1ccc(O)c([N+](=O)[O-])c1, the GI50 was inactive: 15.3 µM.
For OC(c1nc2ccccc2[nH]1)C(O)C(O)C(O)c1nc2ccccc2[nH]1 (stereo not given), the GI50 was inactive: > 100 µM.
In the case of CC(Oc1ccc2c(=O)cc(-c3ccccc3)oc2c1)C(=O)O (stereo not given), the GI50 is reported as inactive: > 100 µM.
In the case of CC(O)C1(CNc2cc(Cl)nc(N)n2)CC(CCc2ccccc2)C1 (stereo not given), the GI50 is reported as inactive: 13.3 µM.
With CCc1cc(Cc2ccc(C)c(NC(=O)C(=O)C3C(=O)NC(=O)NC3=O)c2CC)cc(C)c1NC(=O)C(=O)C1C(=O)NC(=O)NC1=O the GI50 was inactive: > 100 µM.
In the case of CC(Br)C(=O)Nc1ccc(C(=O)O)c(O)c1 (stereo not given), the GI50 is reported as inactive: 27.2 µM.
With COC(=O)[C@]12C3=C(O)C(=O)C[C@H]1OC[C@H]2C=CC3 the GI50 was inactive: > 100 µM.
For C=CC(=O)Nc1ccccc1CC(c1c[nH]c2ccccc12)c1c[nH]c2ccccc12, the GI50 was inactive: 17.1 µM.
Nc1ccc(C(=O)NN2C(=O)C(Cl)C2c2ccccc2Cl)cc1 (stereo not given) was tested, and the GI50 was inactive: 15.2 µM.
CC1=CC(=O)CCC2(C)C1CC[C@@H]2OC=O (stereo not given in full) was tested, and the GI50 was inactive: > 100 µM.
For CC1C2CC(CC2(C)O)C1(C)C (stereo not given), the GI50 was inactive: > 100 µM.
NCCSCCC(=O)O was tested, and the GI50 was inactive: > 100 µM.
With C=CCn1c2c(sc1=S)C(S)NC=N2 (stereo not given) the GI50 was inactive: 81.5 µM.
For COc1cc2c(cc1OC)NC(=O)NC(Cc1ccc3c(c1)OCO3)CC2 (stereo not given), the GI50 was inactive: > 100 µM.
O=c1[nH]c(=S)c2cc3c(=S)[nH]c(=O)n(CCO)c3nc2n1CCO was tested, and the GI50 was inactive: > 100 µM.
CC(C)(C)[C@H]1NC(=O)CN1C(=O)OCc1ccccc1 was tested, and the GI50 was inactive: > 100 µM.
CCOC(=O)Cn1c(=O)c2nc(SC)sc2n(-c2ccc(C)cc2)c1=S was tested, and the GI50 was inactive: > 61.8 µM.
With CCC(C)CC(C)CC(C)/C=C(\C)C1=C(C)CC(C)(O)O1 (stereo not given) the GI50 was inactive: > 100 µM.
With O=[N+]([O-])c1cc(F)ccc1S(=O)(=O)c1ccccc1 the GI50 was inactive: > 10 µM.
O=C(CCCCCCCCCCc1ccccc1)c1c(O)cccc1O was tested, and the GI50 was inactive: 31.2 µM.
For O=C1O[B-](c2ccccc2)(c2ccccc2)[NH+]2CCCC12 (stereo not given), the GI50 was inactive: > 100 µM.
For COc1cc([C@H]2c3[nH]c4ccccc4c3C[C@H]3COC(=O)N32)cc(OC)c1O, the GI50 was inactive: 2.86 µM.
C=C1C(=O)O[C@H]2C3C(=C(C)CC[C@@H]12)C(=O)[C@@H]1OC31C (stereo not given in full) was tested, and the GI50 was inactive: 13 µM.
CC(=O)O[C@H]1C(=O)[C@@]2(C)C([C@H](OC(=O)c3ccccc3)[C@]3(O)C[C@H](OC(=O)[C@H](O)[C@@H](NC(=O)c4ccc(Cl)cc4)c4ccccc4)C(C)=C1C3(C)C)C1(OC(C)=O)CO[C@@H]1C[C@@H]2O (stereo not given in full) was tested, and the GI50 was active: 0.083 µM.
With C=CCc1ccc(O)c(-c2cc(C3Oc4c(-c5cc(CC=C)ccc5O)cc(O)cc4[C@@H]3CO)ccc2O)c1 (stereo not given in full) the GI50 was inactive: 30.2 µM.
In the case of COC1C2C[C@@H](O)CCC2C(C(=O)OCCl)C[C@H]1O (stereo not given in full), the GI50 is reported as inactive: > 100 µM.
With CCCCCCCCCCCC[C@@H](O)[C@H]1CC[C@H]([C@H]2CC[C@H]([C@H](O)CC[C@H](O)CCCCCCCC3=C[C@H](C)OC3=O)O2)O1 the GI50 was inactive: 2.23 µM.
With Cc1cc(C)c(C(=O)/C=C/c2ccccc2)c(C)c1 the GI50 was inactive: > 10 µM.
In the case of CCC1(O)C(=O)OCc2c1cc1n(c2=O)Cc2cc3cc4c(cc3nc2-1)OCO4 (stereo not given), the GI50 is reported as active: 0.0333 µM.

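Interpolation was linear, between the two tested concentrations surrounding the appropriate level; five concentrations were tested over 48 hours in 96-well plates. GI50 is the concentration that inhibits growth by half.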 Activity calls are given as the source filed them. Cut-off read from the data, not from the text of the source: active = GI50 up to about 1.1 µM and inactive = higher.
